Among all 360,000 compounds or so, about 6,000 (1.7%) were called active. The shares of active, inactive and inconclusive entries below differ from those in the screen. The call rests on the fitted dose curve; in most records, active means well fitted cell-killing curve with a large enough effect; inconclusive means small, poorly fitted or top-dose-only effect, or effect the other way; inactive means flat fitted curve, though single readings scatter. No potency is given beside an inconclusive call; the fits are too rough.
Experiment: qHTS for induction of synthetic lethality in tumor cells producing 2HG: qHTS for the HT-1080-NT fibrosarcoma cell line;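 further: NT is the 2HG producing partner of a matched IDH1 knockdown line; nearly all actives have a fitted effect of over 55% in size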;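 on activity, negative = less viability: 0% = DMSO-treated cells and -100% = media-only wells without cells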
Conditions: HT-1080-NT fibrosarcoma viability, CellTiter-Glo ATP luminescence, 48 h; activity, negative = less viability: at 46.1 µM (top of the series) unless noted
How it was run: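 Toxicity toward the 2HG-producing NT line was scored as %Activity, normalised to DMSO and no-cell wells, from CellTiter-Glo luminescence after 48 hours' treatment.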
Potency means the concentration at half of the fitted maximal effect; tags describe the fitted curve by direction and shape.

Compound	Potency	activity, negative = less viability
Cc1ccc2nc(NS(C)(=O)=O)sc2c1	inactive	
CC1CCN(S(=O)(=O)CCNC(=O)c2ccc3c(c2)OCO3)CC1	inactive	
Cc1ccc(S(=O)(=O)NCCC(=O)NCCN2CCCCCC2)cc1	inconclusive [rising, partial curve]	
CCc1ccc(-c2cc(C)no2)cc1S(=O)(=O)N1CCN(c2ccc(OC)cc2)CC1	inconclusive [cytotoxic, partial curve]	
COC(=O)c1ccc(C(=O)NC2CCCc3c2cnn3-c2ccc(C)c(C)c2)cc1 (stereo not drawn)	active: 14.6 µM	
CN(C)c1ccc(/C=N/NC(=O)c2ccccn2)cc1	inconclusive [cytotoxic, partial curve]	
Cc1cc(C)c2c(N)c3cccc(C)c3nc2n1	active: 10.3 µM	
COc1ccccc1CN1C(=O)C(Cc2ccccc2)ON=C1c1ncccc1C (stereo not drawn)	inactive	
O=C(CCCc1nc2ccccc2s1)NCc1ccccc1	inactive	
O=C(NCc1ccco1)/C(=C/C=C\c1ccccc1)NC(=O)c1ccc(Br)o1	inactive	
N/C(=N\OC(=O)c1ccc2ccccc2c1)c1ccccn1	inconclusive [cytotoxic, single point]	
COc1ccc(CCNC(=S)NCc2ccc(Cl)c(Cl)c2)cc1OC	inconclusive [cytotoxic, single point]	
CCOC(=O)c1c(C)c(C(=O)Nc2ccc3c(c2)OCCO3)c(C)n1C	inconclusive [cytotoxic, single point]	
CCOc1ccc(C(CC(=O)O)NC(=O)c2ccco2)cc1OC (stereo not drawn)		inconclusive: 34.4%
N#C/C(=C(/O)c1ccco1)c1nc2ccccc2s1	inconclusive [cytotoxic, single point]	
CN(C)c1ccc(/C=C/C(=O)c2ccc3c(c2)OCO3)cc1	inconclusive [cytotoxic, partial curve]	
Cc1ccc(C)c(OCC(=O)Nc2cc(NC(=O)COc3cc(C)ccc3C)cc(C(=O)O)c2)c1	inactive	
O=C(C[C@@H]1C/C=C\C[C@@H](NC(=O)OCC2c3ccccc3-c3ccccc32)C(=O)OCCNC1=O)N[C@@H](CO)Cc1ccccc1	inactive	
NC(=O)CC[C@H](NC(=O)c1ccc(F)cc1)C(=O)OCC(=O)NCc1ccc(F)cc1	inactive	
Cc1cc(N(C)Cc2ccccc2)nc2cc(O)ccc12		inconclusive: -33.6% [cytotoxic]
O=C(CNC(=O)c1ccco1)N/N=C/c1ccc(C(=O)O)cc1	inactive	
O=C(NC1CC2CCCC(C1)N2Cc1ccccc1)c1cccc(Cl)c1 (stereo not drawn)	inactive	
N#C/C(=C\c1ccc(O)c(O)c1)C(=O)NCc1ccccc1	inconclusive [cytotoxic, single point]	
O=C(COc1ccccc1)n1nc(-c2ccc(Cl)cc2)nc1NCc1ccco1	inconclusive [cytotoxic, single point]	

Compound	Potency	activity, negative = less viability
Cc1csc(-c2cc(C(=O)NCc3cc(C(F)(F)F)cc(C(F)(F)F)c3)n[nH]2)c1	inconclusive [cytotoxic, full curve, poor fit]	
CSc1ccccc1C(=O)N1CCN(c2cccc(Cl)c2)CC1	inconclusive [cytotoxic, single point]	
O=Cc1ccc(O)c2ncccc12	active: 2.31 µM	
O=C(O)CS(=O)(=O)CC(=O)NCc1cccc(C(F)(F)F)c1	inactive	
Fc1ccc(/C=C\c2nccc3c2[nH]c2ccccc23)cc1	inconclusive [cytotoxic, single point]	
Cc1cnc(NC(=O)c2nn(C)cc2[N+](=O)[O-])s1	inconclusive [cytotoxic, partial curve]	
CC1(Cc2ccc(C(F)(F)F)o2)C(=O)Nc2ccc(-c3cccc(C(F)(F)F)c3)cc21 (stereo not drawn)	inconclusive [cytotoxic, single point]	
C=CCOn1c(=O)c(-c2cccs2)[n+]([O-])c2ccccc21	inactive	
C[C@H](CO)N1C[C@H](C)[C@H](CN(C)Cc2ccncc2)Oc2ccc(NC(=O)Nc3ccc(C(F)(F)F)cc3)cc2CC1=O	inconclusive [cytotoxic, single point]	
CCCC1=[N+](CC(=O)c2ccc(C)cc2)CCn2cccc21	inactive	
CCc1cc(C(=O)N2CCc3c([nH]c4ccccc34)C2c2ccc(OC)cc2F)no1 (stereo not drawn)	inconclusive [cytotoxic, full curve]	
O=C1OC[C@H](Cc2ccc3c(c2)OCO3)/C1=C\c1ccc2c(c1)OCO2	inconclusive [cytotoxic, single point]	
Cc1ccc2oc(-c3cccc(NC(=S)NC(=O)/C=C/c4ccco4)c3)nc2c1	inconclusive [cytotoxic, partial curve]	
CCCCN(C(=O)Cn1ncc(Cl)c(Cl)c1=O)c1c(N)n(CC(C)C)c(=O)[nH]c1=O	inconclusive [cytotoxic, single point]	
COC(=O)c1ccccc1NS(=O)(=O)c1ccc2c3c(cccc13)C(=O)N2	inconclusive [cytotoxic, single point]	
CCOCC(O)CSCc1ccc(Cl)cc1 (stereo not drawn)		inconclusive: 2.06%
Cc1ccc(S(=O)(=O)N2CCC(C(=O)NNC(=O)c3ccncc3)CC2)cc1	inactive	
Cc1nn2c(N)c(-c3ccccc3)cnc2c1-c1ccc(Cl)cc1	inconclusive [cytotoxic, single point]	
Cc1ccc(NC(=O)c2ncn(CCCN3CCN(c4ccccn4)CC3)n2)cc1C	inactive	
CC(C)(C)OC(=O)NC(Cc1ccccc1)C(=O)NCCCC(=O)O (stereo not drawn)	inactive	
CCc1ccc(C2c3[nH]c4ccccc4c3CCN2C(=O)CN2CCN(CC)CC2)cc1 (stereo not drawn)	active: 23.1 µM	
COc1cccc(-c2cnc3c(NC(C)=O)cc(-c4ccncc4)cn23)c1	inconclusive [cytotoxic, single point]	
Cc1ccc(NC(=O)CN(C)Cc2c(O)ccc3ccccc23)cc1	inactive	
CCOC(=O)C1=C(N)OC2=C(C(=O)CC(C)(C)C2)C1c1cccs1 (stereo not drawn)	inconclusive [rising, single point]	

— PubChem BioAssay AID686970 (National Center for Advancing Translational Sciences (NCATS), 2013)
